# Measurements from article PMC4336329 (PLoS ONE, 2015).
# Out of some 310,000 compounds screened, about 14,000 (4.5%) showed an effect of 50% or more. The effect is printed as a negative number. The list shows a part of the results.
# Target: human ether-à-go-go-related gene (hERG) potassium channel (human, UniProt Q12809)
# Assay: primary screen, population patch clamp on CHO cells stably expressing hERG
# 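Note: peak tail current of the secondary pulse compared with the same well before compound.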
# human ether-à-go-go-related gene (hERG) potassium channel, sequence (Q12809 whole entry, looked up): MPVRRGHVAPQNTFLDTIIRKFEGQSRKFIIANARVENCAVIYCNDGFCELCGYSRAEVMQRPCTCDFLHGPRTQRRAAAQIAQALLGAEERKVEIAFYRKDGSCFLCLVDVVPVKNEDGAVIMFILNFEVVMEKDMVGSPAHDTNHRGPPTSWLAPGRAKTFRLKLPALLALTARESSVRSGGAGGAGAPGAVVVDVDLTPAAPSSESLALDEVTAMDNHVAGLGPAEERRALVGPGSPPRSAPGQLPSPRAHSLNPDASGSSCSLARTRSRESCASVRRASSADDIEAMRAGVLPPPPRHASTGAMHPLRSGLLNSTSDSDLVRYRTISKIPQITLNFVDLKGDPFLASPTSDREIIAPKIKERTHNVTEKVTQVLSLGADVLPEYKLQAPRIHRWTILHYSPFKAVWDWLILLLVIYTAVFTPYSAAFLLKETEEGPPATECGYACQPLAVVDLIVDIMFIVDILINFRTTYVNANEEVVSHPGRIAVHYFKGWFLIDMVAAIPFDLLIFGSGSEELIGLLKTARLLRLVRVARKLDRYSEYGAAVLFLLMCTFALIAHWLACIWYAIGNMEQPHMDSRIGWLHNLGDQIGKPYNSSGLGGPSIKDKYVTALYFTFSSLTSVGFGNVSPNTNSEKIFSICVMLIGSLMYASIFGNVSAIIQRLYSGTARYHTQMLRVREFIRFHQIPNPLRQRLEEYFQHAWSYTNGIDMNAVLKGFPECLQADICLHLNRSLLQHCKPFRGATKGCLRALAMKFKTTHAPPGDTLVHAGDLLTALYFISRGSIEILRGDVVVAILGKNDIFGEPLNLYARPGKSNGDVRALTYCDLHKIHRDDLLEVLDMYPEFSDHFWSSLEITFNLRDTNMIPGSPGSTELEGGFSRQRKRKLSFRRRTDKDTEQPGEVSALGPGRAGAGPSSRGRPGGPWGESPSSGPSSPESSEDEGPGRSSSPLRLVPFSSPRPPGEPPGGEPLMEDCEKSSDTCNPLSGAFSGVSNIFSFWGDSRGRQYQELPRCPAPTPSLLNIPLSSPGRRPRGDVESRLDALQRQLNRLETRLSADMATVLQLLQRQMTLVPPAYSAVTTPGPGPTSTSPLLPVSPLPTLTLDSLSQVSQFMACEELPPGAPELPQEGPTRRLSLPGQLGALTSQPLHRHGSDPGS
row,SMILES,"hERG current change (%, negative = inhibition) at 10uM [%]"
1,CCOc1ccc(C2N(c3ccc(OC)cc3)C(=O)C3CCCN32)cc1OC (stereo not drawn),-3.49
2,CC(C)(C)OC(=O)N1CCC(NC(=O)c2nc[nH]c2C(=O)NC2CCN(C(=O)OC(C)(C)C)CC2)CC1,-31.5
3,O=C(CN1N=C(c2ccccc2)CCC1=O)NCCN1CCc2ccccc2C1,-15.7
4,O=C(c1cccs1)N1CCN=C1SCc1ccc(F)cc1,6.51
5,CCOc1ccc(-c2cc(C(=O)OC)nc3c2c(=O)n(C)c(=O)n3C)cc1,3.99
6,CCCCN(CC)C(=O)CN1C(=O)c2ccccc2C1=O,3.83
7,CCc1cccc(C)c1NC(=S)NCCc1c(C)[nH]c2ccc(C)cc12,3.67
8,O=C(Nc1ccc(S(=O)(=O)Nc2ncccn2)cc1)c1ccc(F)c(S(=O)(=O)N2CCOCC2)c1,8.75
9,Cc1cccn2c(=O)c3cc(C(=O)NCCc4ccccc4)c(=N)n(CCCn4ccnc4)c3nc12,-74.4
10,CC(C)(C)C(=O)Nc1ccc(C(=O)N/N=C/c2ccccc2OC(=O)c2ccc(Cl)cc2)cc1,0.668
11,O=[N+]([O-])c1cccc(N=NN(CCO)c2cccc([N+](=O)[O-])c2)c1,-0.0267
12,CCC1CCCCN1C(=O)C(=O)c1cn(CC(=O)N(CC)CC)c2ccccc12 (stereo not drawn),21
13,Cc1ccc(OCC(=O)NC(C)c2ccccc2)cc1C (stereo not drawn),-5.25
14,CN(C)CCCNc1ncnc2oc(-c3ccccc3)c(-c3ccccc3)c12,-69.5
15,Cc1nn2c(c1-c1ccc(Cl)cc1)N=C(c1ccco1)CC2c1ccccc1 (stereo not drawn),7.49
16,[Cl-].c1ccc(CC[C@@H]2CC[C@@H](CCc3ccccc3)N2)cc1,-66
17,CS(=O)(=O)N1CCN(c2ccc(NC(=O)Cc3ccccc3)cc2)CC1,0.64
18,CN1CCN(C2CC(=O)N(CCc3ccccc3)C2=O)CC1 (stereo not drawn),-4.9
19,C=CCOc1ccccc1CN1CCCCCC1,-18.9
20,COc1cc2c(cc1OC)C(COc1ccc(C(C)C)cc1)NCC2 (stereo not drawn),-46.2
21,COc1ccc(C(=O)/C=C/c2ccc(OC)c(CN3CCOCC3)c2)cc1,-56.3
22,COc1ccccc1-c1cn[nH]c1-c1ccc(OCc2ccccc2)cc1O,7.49
23,COc1ccc(N2CC(C(=O)Nc3nc(-c4ccccc4)c(C(C)=O)s3)CC2=O)c(OC)c1 (stereo not drawn),-0.242
24,Cc1nnc(NC(=O)CCC(=O)NCc2cccs2)s1,4.66
25,CN(CCC#N)C(=O)COC(=O)c1ccccc1C(=O)c1ccc(Cl)c([N+](=O)[O-])c1,-0.749
26,O=C(NCC(=O)N(Cc1ccco1)C(C(=O)NC1CCCC1)c1cccnc1)c1cccs1 (stereo not drawn),3.5
27,CC(C)(C)OC(=O)NCCCCCc1nnc(SCC(N)=O)o1,2.91

row,SMILES,"hERG current change (%, negative = inhibition) at 10uM [%]"
1,O/N=C/c1cc(Cl)ccc1OCc1ccccc1Cl,14.9
2,Cc1c(C(=O)NC2CCCCC2)oc2ccccc12,-4.22
3,CCCc1nnc(NC(=O)CCC(=O)N2CCN(C3c4ccccc4-c4ccccc43)CC2)s1,-3.76
4,COc1ccc(CNC(=O)CC2C(=O)NCCN2CC(C)(C)C)c(OC)c1 (stereo not drawn),7.82
5,CCc1ccc(-c2ccc(C(=O)O)cc2)nc1,21
6,CN1CCN(CCCNC(=O)CCC(=O)N2CCOc3ccccc32)CC1,5.46
7,Cc1cc(C)nc(SCc2ccc(C(=O)N/N=C/c3ccc(C(=O)O)cc3)cc2)n1,28.6
8,Cc1cc(NC(=O)COC(=O)c2ccc(NS(=O)(=O)c3ccc(C)c(C)c3)cc2)no1,5.86
9,CCCCN(CC)CCCNC(=O)c1cn(C)c(=O)c2c1c1ccccc1n2C,-29.2
10,CC(=O)Nc1ccc(Oc2cc(C#N)c(C#N)cc2N2CCOCC2)cc1,-16.9
11,CC(=O)c1cc(-c2ccccc2)n(CC(=O)N2CCC(C)CC2)c1C,-7.42
12,CC(C)CCn1c(=O)c2ccccc2n2c(CN3C(=O)NC4(CCC(C)CC4)C3=O)nnc12 (stereo not drawn),-72.1
13,COC(=O)/C=C1\N/C(=N\c2nc(C)cc(C)n2)N(c2ccc(Cl)cc2)C1=O,4.58
14,CCN(CC)S(=O)(=O)c1cccc(NC(=O)CCSc2ccc(Cl)cc2)c1,10.3
15,COc1ccc(OC)c(NC(=O)CCN2CC(C)OC(C)C2)c1 (stereo not drawn),2.92
16,O=C(Nc1cccc(C(F)(F)F)c1)OC1CN2CCC1CC2 (stereo not drawn),-28.5
17,COc1ccc(CCNC(=O)C2CCN(S(=O)(=O)N3CCC(C)CC3)CC2)cc1OC,-4.77
18,O=C(Cc1cccc2ccccc12)Nc1nnc(-c2cccc([N+](=O)[O-])c2)s1,17.6
19,COc1cc(/C=C2\NC(=S)NC2=O)ccc1OCc1cccc(C(=O)O)c1,11.1
20,COc1cc(OC)c(OC)cc1CN1CCCC(C(=O)N2CCCC2)C1.O=C(O)C(=O)O (stereo not drawn),17.4
21,CCn1c(CNC(=O)c2ccco2)nnc1SCCOc1ccccc1,-7.69
22,O=C(NC1CCCC1)c1ccc(Br)o1,-4.8
23,CN(C)S(=O)(=O)c1cccc(-c2cn3cccnc3n2)c1,21.5
24,COc1ccc(/C=C(\C#N)C(=O)N2COCC2(C)C)cc1,9.99
25,CCOc1ccc(NS(=O)(=O)c2ccc(NC(=S)NC(C)=O)cc2)cc1,15.5
26,COc1ccc(N(C(C)C(=O)N(C)Cc2ccccc2)S(C)(=O)=O)cc1 (stereo not drawn),12.9
27,Cc1c(C(c2cc3c(cc2Br)OCO3)c2c(C)n(C)n(-c3ccccc3)c2=O)c(=O)n(-c2ccccc2)n1C,-6.73
